Assay results taken from PubChem BioAssay AID485364 (National Center for Advancing Translational Sciences (NCATS), 2010).
The campaign covered roughly 360,000 compounds. About 11,000 (3.1%) were called active. Inconclusive means that the source gave no clear call. Such entries were picked first, then a sample of the others. The call rests on the fitted dose curve; in most records, active means well fitted inhibition curve with a large enough effect; inconclusive means small, poorly fitted or top-dose-only effect; inactive means no such curve, though single readings can be large or run the other way. No potency is given beside an inconclusive call; the fits are too rough.

molecular target: Schistosoma mansoni thioredoxin glutathione reductase (TGR) (UniProt Q962Y6); experiment: qHTS Assay for the Inhibitors of Schistosoma Mansoni Peroxiredoxins; details: purified TGR, DTNB reduction, TNB absorbance 405 nm; activity change, negative = inhibition: at 114 µM (top of the series) unless noted; further: nearly all actives have a fitted effect of over 60% in size
Outline: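 Kinetic colorimetric format: TGR-catalysed, NADPH-driven DTNB reduction monitored via TNB absorbance. Enzyme dispensed at 20 nM; compound exposure 15 min at room temperature before reaction start.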
On the % scale 0 is the no-effect control and ±100 the full control effect; potency means the concentration at half of the fitted maximal effect; tags describe the fitted curve by direction and shape.

Structure (SMILES) | Potency | activity change, negative = inhibition
COc1ccc(OC)c(CN2CCCCCC2)c1 | inconclusive [inhibitor, single point] | 
Cc1ccc(/C=N/n2c(-c3cccnc3)n[nH]c2=S)o1 | active: 28.2 µM | 
Cc1cc(S(=O)(=O)N2CCCC(N(C)CCc3ccccn3)C2)c(C)cc1Cl (configuration not stated) | active: 44.7 µM | 
C=CCNCc1ccc(C(=O)NCCCCCCC)cc1[N+](=O)[O-] | inconclusive [inhibitor, partial curve] | 
CC1Sc2ccc(S(=O)(=O)CCC(=O)NC3CCCCC3C)cc2NC1=O (configuration not stated) | inconclusive [inhibitor, partial curve] | 
O=C(CSc1oc(-c2ccc(F)cc2)nc1S(=O)(=O)c1ccc(Cl)cc1)c1ccccc1 |  | inactive: -9.23%
O=C(Nc1ccccc1)N(O)c1ccc(Cl)cc1 |  | inactive: -27.4%
O=C(CCS(=O)(=O)c1nc(-c2ccc3c(c2)OCO3)cc(C(F)(F)F)n1)Nc1ccc(F)cc1F |  | inactive: -21.1%
CC1=C/C(=C(/c2cc(C)c(O)c(Br)c2)c2ccccc2S(=O)(=O)O)C=C(Br)C1=O | active: 44.7 µM | 
Cc1ccc(Nc2nc(/N=C/N(C)C)n[nH]2)cc1C |  | inactive: -116%
CCOC(=O)N1CCN(S(=O)(=O)c2ccc(C(=O)Nc3nnc(CC)o3)cc2)CC1 |  | inactive: 5.16%
Nc1c(N(Cc2ccco2)C(=O)COc2ccccc2)c(=O)[nH]c(=O)n1Cc1ccccc1 | inconclusive [inhibitor, partial curve] | 
CCCOc1ccc(N2C(=O)CC(SCC(N)C(=O)OCC)C2=O)cc1 (configuration not stated) | inconclusive [inhibitor, partial curve] | 
COc1ccc(Cc2noc(CN(C)CCN3CCc4ccccc4C3)n2)cc1OC | inconclusive [inhibitor, partial curve] | 
Cc1ccccc1C(=O)NC(=S)Nc1cccc(NC(=O)C(C)C)c1 |  | inactive: -5.66%
NNC(=O)CNC(c1ccccc1)c1cc(Br)ccc1NC(=O)CCN1CCOCC1 (configuration not stated) | active: 17.8 µM | 
CN(C)CCNc1cc(-c2ccncc2)nc2ccccc12 | inconclusive [inhibitor, full curve] | 
COc1cc(C(=O)NNC(=O)c2ccccc2OCc2c(C)noc2C)cc(OC)c1OC |  | inactive: -16%
O=C(O)CSCC(=O)N1CCN(S(=O)(=O)c2cc(Cl)cc(Cl)c2)CC1 |  | inactive: -1.12%
CC(C)CN(C(=O)CSc1ncnc2sccc12)C1CCS(=O)(=O)C1 (configuration not stated) | inconclusive [inhibitor, partial curve, poor fit] | 
CSc1cccc(NC(=S)N2CCC(N(C)C3CCCCCC3)CC2)c1 | active: 50.1 µM | 
O=C(Cc1ccc(-c2ccccc2)cc1)Nc1ncccc1O |  | inactive: -13%
CC(CC(=O)NCc1ccc(Cl)cc1Cl)CC1=NS(=O)(=O)c2ccccc2N1 (configuration not stated) |  | inactive: -0.848%
O=C(N/N=C/C(Br)=C/c1ccccc1)NC1CCCCC1 | inconclusive [inhibitor, full curve] | 

Structure (SMILES) | Potency | activity change, negative = inhibition
Cn1nc(C(C)(C)C)c([N+](=O)[O-])c1C(=O)NC1CCCCC1 |  | inactive: 2.08%
C[C@H](NC(=O)C1CC(=O)N(c2ccc3c(c2)OCCO3)C1)C(=O)NCc1ccco1 (some centres not stated) | inconclusive [inhibitor, partial curve] | 
Cc1noc(C)c1CN1C(=O)c2cccc([N+](=O)[O-])c2C1=O | inconclusive [inhibitor, full curve] | 
Cc1cccc(N2C(=O)CC(N3CCN(C(=O)c4ccccc4)CC3)C2=O)c1 (configuration not stated) | inconclusive [inhibitor, partial curve] | 
S=c1[nH]nc(-c2ccc(Cl)cc2)n1/N=C/C=C/c1ccco1 | active: 39.8 µM | 
CCOC(=O)c1ccc(NC(=O)CC2C(=O)N(c3ccc(F)cc3)C(=O)N2CCC(C)C)cc1 (configuration not stated) | inconclusive [inhibitor, partial curve, poor fit] | 
CC(=O)NC1=NC(=O)/C(=C/c2cc(C)n(-c3ccc(NC(C)=O)cc3)c2C)S1 | inconclusive [inhibitor, partial curve] | 
Cc1ccc(S(=O)(=O)Nc2ccc3c(c2)CCCN3C(=O)c2cccs2)cc1C | inconclusive [inhibitor, single point] | 
O=C(NC(NC(=O)c1ccccc1)C(=O)c1ccccc1)c1ccccc1 |  | inactive: 5.51%
COc1ccc(NS(=O)(=O)c2ccc(NC(=O)c3ccc(CN4CCOCC4)cc3)cc2)cc1 | inconclusive [inhibitor, single point] | 
COc1cccc(C(c2sc3nc(-c4ccco4)nn3c2O)N2CCC3(CC2)OCCO3)c1 (configuration not stated) |  | inactive: -14.8%
O=C(NCCO)C(c1ccccc1)c1ccccc1 | inconclusive [inhibitor, partial curve] | 
FC(F)Oc1ccc(NC(=S)NN2CCOCC2)cc1 | inconclusive [inhibitor, partial curve, poor fit] | 
CN(C(=O)CC1C(=O)NCCN1Cc1cccc(F)c1F)C1CCOCC1 (configuration not stated) | inconclusive [inhibitor, partial curve] | 
Cc1ccc(OCC(=O)Nc2ccc(S(=O)(=O)N3CCN(C)CC3)cc2)cc1 | inconclusive [inhibitor, partial curve] | 
Oc1cccc(-c2nc(-c3cccs3)c(-c3cccs3)[nH]2)c1 | inconclusive [inhibitor, single point] | 
CC(C)n1cc(CN2CCC(C(=O)Nc3cccc(-c4cscn4)c3)CC2)cn1 | inconclusive [inhibitor, partial curve] | 
CCc1cc(C(c2ccccn2)N2CCN(C)CC2)c(NC(=O)c2ccccc2)s1 (configuration not stated) | active: 11.2 µM | 
S=C(Nc1ccccn1)NC1CCCC1 | inconclusive [inhibitor, full curve] | 
Cc1ccccc1Nc1ccc(S(=O)(=O)N2CCOCC2)cc1[N+](=O)[O-] | inconclusive [inhibitor, partial curve] | 
c1coc(CNc2ncnc3nc[nH]c23)c1 |  | inactive: -7.19%
CCCCn1c(=O)n(CC(O)c2ccccc2)c(=O)c2c1ncn2C1CCCC1 (configuration not stated) |  | inactive: 21.4%
O=C(NCCc1ccccc1)c1ccc2nc(N3CCOCC3)sc2c1 |  | inactive: -5.15%
COc1cc2ccccc2cc1C(=O)Nc1ccccc1Cl |  | inactive: 0.539%

Structure (SMILES) | Potency | activity change, negative = inhibition
CCOc1ccccc1/C=N/Nc1ccnc(=O)[nH]1 |  | inactive: 0.555%
FC(F)Oc1ccc(-n2cc(-c3ccc(Cl)cc3)[n+]3c2CCCCC3)cc1 |  | inactive: 8.25%
O=[N+]([O-])c1ccc(Nc2ccccc2)c2nonc12 | inconclusive [inhibitor, partial curve] | 
CCOC(=O)C1(CCOC)CCN(C(=O)c2ccc(CSC)o2)CC1 | inconclusive [inhibitor, partial curve] | 
N#Cc1cc2c(nc1SCC(=O)Nc1sc3c(c1C#N)CCC3)CCCCCC2 | inconclusive [inhibitor, partial curve] | 
Cc1cc(OCCCSc2nc(-c3ccc(C(C)(C)C)cc3)nc3cc(=O)[nH]n23)ccc1Cl |  | inactive: -19.2%
Oc1c(Br)cc(Br)cc1CNc1ccc(F)cc1 | inconclusive [inhibitor, full curve] | 
COc1cc(/C=C2\SC(=S)N(NC(=O)c3ccc(O)cc3)C2=O)ccc1O | inconclusive [inhibitor, partial curve] | 
CCOC(=O)c1c(C)n(C)c2ccc(OCC(O)Cn3nc(C)cc3C)cc12 (configuration not stated) | inconclusive [inhibitor, partial curve] | 
Cc1ccccc1C(=O)Nc1ccc(N2CCN(C)CC2)nc1 |  | inactive: -3.8%
COc1cc(C2C3=C(Nc4ncnn42)c2ccccc2CC3)cc(OC)c1OC (configuration not stated) | inconclusive [inhibitor, partial curve] | 
COc1cc(/C=C(/C#N)C(=O)Nc2ccccc2)c(Br)cc1OCc1ccc(C(=O)O)cc1 |  | inactive: -6.85%
Cc1ccc(SC(=O)COc2ccc(C)c(C)c2)cc1 | inconclusive [inhibitor, full curve] | 
COc1cc2c(cc1OC)CN(C(=O)CN1C(=O)NC3(CCC(C)CC3)C1=O)CC2 (configuration not stated) | inconclusive [inhibitor, single point] | 
O=C(CSc1nnc(C2CC2)n1-c1ccccc1)N1CCNC1=O | inconclusive [inhibitor, full curve, poor fit] | 
CCOC(=O)CCCCC(=O)c1[nH]c(=O)[nH]c1CSc1nc(C)cc(C)n1 |  | inactive: 8.14% [at 11.4 µM]
COc1ccc(CC(NC(C)=O)C(=O)NC2CCN(c3nc(C)cc(C)c3C#N)CC2)cc1 (configuration not stated) | inconclusive [inhibitor, partial curve] | 
O=C(/C=C/c1ccc(Br)cc1)NC1CCCCCC1 |  | inactive: 2.5%
Cn1c(Cc2ccccc2)nnc1SCC(=O)c1cccs1 |  | inactive: -23.6%
Cc1nn(C(C)C(=O)NCCc2ccco2)c(=O)c2nn(-c3ccccc3)c(C)c12 (configuration not stated) | inconclusive [inhibitor, full curve, poor fit] | 
COC(=O)[C@@]1(Cc2ccc(OC)cc2)[C@@H]2C(=CC(=O)[C@H]2CC(=O)C(=O)N(C)C)CN1C(=O)c1ccccc1 | inconclusive [inhibitor, full curve, poor fit] | 
NC(=O)CSc1nnc(-c2cnccn2)n1Cc1ccco1 | inconclusive [inhibitor, partial curve] | 
CCC(=O)Nc1nnc(S(=O)(=O)N2CCCc3ccccc32)s1 | inconclusive [inhibitor, partial curve, poor fit] | 
CCCCC(=O)N1C/C=C\C(c2ccc(OC)cc2)N(Cc2ccc(F)cc2)C(=O)[C@H]1Cc1ccccc1 (some centres not stated) | inconclusive [inhibitor, partial curve] | 
